From the supplement of paper PMC6089552
Among all 3,200 compounds or so, about 300 (9.4%) showed activity. Only a part is listed here, and it is no random draw.

Tested on: A673/TR/shEF
Experiment: cell viability (LOESS-normalised, relative to median of negative controls) (log2 ratio); higher = more viable cells (less compound effect), active = hit call of the paper (over 3 MAD below the median)
Details: treatment time: 72 h
Outline: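 Doxycycline, present or absent from 24 h before compounds, was used to induce EWS-FLI1 shRNA knockdown in A673/TR/shEF Ewing sarcoma cells at 1,500 per well in 384-well plates. Cells then received library compounds at two or more concentrations, or DMSO controls, for three days. Viability was measured by CellTiter-Glo luminescence on an Envision reader, and per-plate LOESS correction, division by the negative-control median and log2 transformation followed.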

[1] = 0.103 µM, library screen: screen3, EWS-FLI1 expression: high (no doxycycline)
[2] = 0.103 µM, library screen: screen3, EWS-FLI1 expression: low (doxycycline-induced shRNA knockdown)
[3] = 0.25 µM, library screen: screen1, EWS-FLI1 expression: high (no doxycycline)
[4] = 0.25 µM, library screen: screen1, EWS-FLI1 expression: low (doxycycline-induced shRNA knockdown)
[5] = 0.25 µM, library screen: screen2, EWS-FLI1 expression: high (no doxycycline)
[6] = 0.25 µM, library screen: screen2, EWS-FLI1 expression: low (doxycycline-induced shRNA knockdown)
[7] = 0.308 µM, library screen: screen3, EWS-FLI1 expression: high (no doxycycline)
[8] = 0.308 µM, library screen: screen3, EWS-FLI1 expression: low (doxycycline-induced shRNA knockdown)
[9] = 0.926 µM, library screen: screen3, EWS-FLI1 expression: high (no doxycycline)
[10] = 0.926 µM, library screen: screen3, EWS-FLI1 expression: low (doxycycline-induced shRNA knockdown)
[11] = 2.5 µM, library screen: screen1, EWS-FLI1 expression: high (no doxycycline)
[12] = 2.5 µM, library screen: screen1, EWS-FLI1 expression: low (doxycycline-induced shRNA knockdown)
[13] = 2.5 µM, library screen: screen2, EWS-FLI1 expression: high (no doxycycline)
[14] = 2.5 µM, library screen: screen2, EWS-FLI1 expression: low (doxycycline-induced shRNA knockdown)
[15] = 2.8 µM, library screen: screen3, EWS-FLI1 expression: high (no doxycycline)
[16] = 2.8 µM, library screen: screen3, EWS-FLI1 expression: low (doxycycline-induced shRNA knockdown)
[17] = 8.3 µM, library screen: screen3, EWS-FLI1 expression: high (no doxycycline)
[18] = 8.3 µM, library screen: screen3, EWS-FLI1 expression: low (doxycycline-induced shRNA knockdown)
[19] = 25 µM, library screen: screen3, EWS-FLI1 expression: high (no doxycycline)
[20] = 25 µM, library screen: screen3, EWS-FLI1 expression: low (doxycycline-induced shRNA knockdown)

CC/C(=C(\c1ccccc1)c1ccc(OCCN(C)C)cc1)c1ccccc1
cell viability (log2) (0.025 µM, library screen: screen2, EWS-FLI1 expression: high (no doxycycline)): inactive: 0.101 | cell viability (log2) (0.025 µM, library screen: screen2, EWS-FLI1 expression: low (doxycycline-induced shRNA knockdown)): inactive: 0.036 | cell viability (log2) [1]: inactive: -0.0663 | cell viability (log2) [2]: inactive: 0.0362 | cell viability (log2) [3]: inactive: 0.0407 | cell viability (log2) [4]: inactive: 0.116 | cell viability (log2) [5]: inactive: 0.141 | cell viability (log2) [6]: inactive: 0.0605 | cell viability (log2) [7]: inactive: 0.0614 | cell viability (log2) [8]: inactive: 0.0373 | cell viability (log2) [9]: inactive: 0.139 | cell viability (log2) [10]: inactive: 0.0387 | cell viability (log2) [11]: inactive: 0.148 | cell viability (log2) [12]: inactive: 0.145 | cell viability (log2) [13]: inactive: 0.182 | cell viability (log2) [14]: inactive: 0.118 | cell viability (log2) [15]: inactive: 0.102 | cell viability (log2) [16]: inactive: 0.0193 | cell viability (log2) [17]: inactive: 0.0588 | cell viability (log2) [18]: inactive: 0.0342 | cell viability (log2) (25 µM, library screen: screen2, EWS-FLI1 expression: high (no doxycycline)): inactive: 0.0567 | cell viability (log2) (25 µM, library screen: screen2, EWS-FLI1 expression: low (doxycycline-induced shRNA knockdown)): inactive: 0.124 | cell viability (log2) [19]: inactive: 0.0314 | cell viability (log2) [20]: inactive: 0.0332

C#C[C@]1(O)CC[C@H]2[C@@H]3CCC4=C(CCC(=O)C4)[C@H]3CC[C@@]21C
cell viability (log2) [3]: inactive: 0.0211 | cell viability (log2) [4]: inactive: -0.000537 | cell viability (log2) [11]: inactive: 0.0513 | cell viability (log2) [12]: inactive: 0.0695

COc1cc(OC)c(-c2c(OC)cc(OC)cc2OC)c(OC)c1
cell viability (log2) [3]: inactive: 0.14 | cell viability (log2) [4]: inactive: 0.0211 | cell viability (log2) [11]: inactive: 0.176 | cell viability (log2) [12]: inactive: 0.0686

CC(C)(C)NCC(O)c1cc(O)cc(O)c1 (stereo not drawn)
cell viability (log2) [3]: inactive: 0.0961 | cell viability (log2) [4]: inactive: 0.111 | cell viability (log2) [5]: inactive: 0.113 | cell viability (log2) [6]: inactive: 0.0509 | cell viability (log2) [11]: inactive: 0.157 | cell viability (log2) [12]: inactive: 0.192 | cell viability (log2) [13]: inactive: 0.201 | cell viability (log2) [14]: inactive: 0.0252

CC[N+](CC)(CC)CCOc1cccc(OCC[N+](CC)(CC)CC)c1OCC[N+](CC)(CC)CC
cell viability (log2) [1]: inactive: 0.0398 | cell viability (log2) [2]: inactive: 0.024 | cell viability (log2) [3]: inactive: 0.0529 | cell viability (log2) [4]: inactive: 0.012 | cell viability (log2) [5]: inactive: 0.159 | cell viability (log2) [6]: inactive: 0.049 | cell viability (log2) [7]: inactive: -0.00105 | cell viability (log2) [8]: inactive: 0.0392 | cell viability (log2) [9]: inactive: 0.102 | cell viability (log2) [10]: inactive: 0.0616 | cell viability (log2) [11]: inactive: 0.217 | cell viability (log2) [12]: inactive: 0.0215 | cell viability (log2) [13]: inactive: 0.193 | cell viability (log2) [14]: inactive: 0.0796 | cell viability (log2) [15]: inactive: -0.0258 | cell viability (log2) [16]: inactive: 0.0455 | cell viability (log2) [17]: inactive: -0.0163 | cell viability (log2) [18]: inactive: 0.0323 | cell viability (log2) [19]: 0.42 | cell viability (log2) [20]: inactive: 0.0765

CCOc1ccc(NC(C)=O)cc1
cell viability (log2) [3]: inactive: 0.128 | cell viability (log2) [4]: inactive: -0.0163 | cell viability (log2) [11]: inactive: 0.183 | cell viability (log2) [12]: inactive: 0.102

CN1CCC[C@@H]1CCO[C@](C)(c1ccccc1)c1ccc(Cl)cc1
cell viability (log2) [1]: inactive: 0.141 | cell viability (log2) [2]: inactive: 0.0523 | cell viability (log2) [3]: inactive: 0.0794 | cell viability (log2) [4]: inactive: 0.13 | cell viability (log2) [5]: inactive: 0.0531 | cell viability (log2) [6]: inactive: 0.128 | cell viability (log2) [7]: inactive: 0.0964 | cell viability (log2) [8]: inactive: 0.0784 | cell viability (log2) [9]: inactive: 0.12 | cell viability (log2) [10]: inactive: 0.0683 | cell viability (log2) [11]: inactive: 0.0576 | cell viability (log2) [12]: inactive: -0.00561 | cell viability (log2) [13]: inactive: 0.106 | cell viability (log2) [14]: inactive: 0.0339 | cell viability (log2) [15]: inactive: 0.0902 | cell viability (log2) [16]: inactive: 0.0397 | cell viability (log2) [17]: inactive: 0.0198 | cell viability (log2) [18]: inactive: 0.0364 | cell viability (log2) [19]: inactive: 0.0553 | cell viability (log2) [20]: inactive: -0.00614

CC(C(=O)O)c1ccc(C(=O)c2cccs2)cc1 (stereo not drawn)
cell viability (log2) [3]: inactive: 0.0835 | cell viability (log2) [4]: inactive: 0.0129 | cell viability (log2) [11]: inactive: 0.155 | cell viability (log2) [12]: inactive: -0.0021

COc1cc2ncnc(Nc3ccc(F)c(Cl)c3)c2cc1OCCCN1CCOCC1
cell viability (log2) [1]: inactive: 0.066 | cell viability (log2) [2]: inactive: 0.0855 | cell viability (log2) [7]: inactive: 0.103 | cell viability (log2) [8]: inactive: 0.0493 | cell viability (log2) [9]: inactive: 0.114 | cell viability (log2) [10]: inactive: 0.0535 | cell viability (log2) [15]: inactive: 0.136 | cell viability (log2) [16]: inactive: 0.0991 | cell viability (log2) [17]: inactive: 0.00987 | cell viability (log2) [18]: inactive: 0.0751 | cell viability (log2) [19]: inactive: -0.0152 | cell viability (log2) [20]: inactive: 0.0721

O=C(O)c1cccnc1C(=O)O
cell viability (log2) [3]: inactive: 0.105 | cell viability (log2) [4]: inactive: 0.0198 | cell viability (log2) [5]: inactive: 0.153 | cell viability (log2) [6]: inactive: 0.0262 | cell viability (log2) [11]: inactive: 0.0345 | cell viability (log2) [12]: inactive: 0.0548 | cell viability (log2) [13]: inactive: 0.169 | cell viability (log2) [14]: inactive: 0.0401

CCN1CCC[C@H]1CNC(=O)c1c(O)c(Cl)cc(Cl)c1OC
cell viability (log2) [5]: inactive: 0.269 | cell viability (log2) [6]: inactive: 0.092 | cell viability (log2) [13]: inactive: 0.266 | cell viability (log2) [14]: inactive: 0.199

COc1cc2c(cc1-c1coc3c4c(c(OC)cc3c1=O)OC(C)(C)C=C4)OCO2
cell viability (log2) [3]: inactive: 0.082 | cell viability (log2) [4]: inactive: 0.0865 | cell viability (log2) [11]: inactive: 0.173 | cell viability (log2) [12]: inactive: 0.0953

CC[C@@H]([C@H](C)O)n1ncn(-c2ccc(N3CCN(c4ccc(OC[C@@H]5CO[C@@](Cn6cncn6)(c6ccc(F)cc6F)C5)cc4)CC3)cc2)c1=O
cell viability (log2) [1]: inactive: 0.0599 | cell viability (log2) [2]: inactive: 0.149 | cell viability (log2) [7]: inactive: 0.118 | cell viability (log2) [8]: inactive: 0.0845 | cell viability (log2) [9]: inactive: 0.138 | cell viability (log2) [10]: inactive: 0.0454 | cell viability (log2) [15]: inactive: 0.0821 | cell viability (log2) [16]: inactive: 0.0872 | cell viability (log2) [17]: inactive: 0.0755 | cell viability (log2) [18]: inactive: 0.0834 | cell viability (log2) [19]: inactive: -0.161 | cell viability (log2) [20]: inactive: -0.034
